Results: the supplement of paper PMC8728848
Some of the results follow.

Assays:
Assay in all cases: glycan array binding signal (z-score within array); higher = stronger binding
Conditions in all cases: glycan notation: IUPAC condensed, linker removed
[1] = molecular target: Gal(b1-4)GlcNAc(b1-3)Gal(b1-4)GlcNAc(b1-2)[Gal(b1-4)GlcNAc(b1-3)Gal(b1-4)GlcNAc(b1-6)]Man(a1-6)[Gal(b1-4)GlcNAc(b1-3)Gal(b1-4)GlcNAc(b1-2)Man(a1-3)]Man(b1-4)GlcNAc(b1-4)GlcNAc
In short: (§1)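 Columns mapping to the same glycan were averaged after glycan names were converted to IUPAC-condensed notation. The data come from 3228 arrays in the Consortium for Functional Glycomics database, limited to those with an available protein sequence. Binding is reported as a within-array Z-score averaged across arrays of one protein sequence and across linkers.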

[2] = molecular target: Gal(b1-4)GlcNAc(b1-3)Gal(b1-4)GlcNAc(b1-2)[Gal(b1-4)GlcNAc(b1-3)Gal(b1-4)GlcNAc(b1-6)]Man(a1-6)[Gal(b1-4)GlcNAc(b1-3)Gal(b1-4)GlcNAc(b1-2)Man(a1-3)]Man(b1-4)GlcNAc(b1-4)[Fuc(a1-6)]GlcNAc
In short: as §1

[3] = molecular target: Gal(b1-4)GlcNAc(b1-3)Gal(b1-4)GlcNAc(b1-3)Gal(b1-4)GlcNAc
In short: as §1

[4] = molecular target: Gal(b1-4)GlcNAc(b1-3)Gal(b1-4)GlcNAc(b1-3)Gal(b1-4)GlcNAc(b1-2)Man(a1-3)[Gal(b1-4)GlcNAc(b1-3)Gal(b1-4)GlcNAc(b1-3)Gal(b1-4)GlcNAc(b1-2)Man(a1-6)]Man(b1-4)GlcNAc(b1-4)GlcNAc
In short: as §1

[5] = molecular target: Gal(b1-4)GlcNAc(b1-3)Gal(b1-4)GlcNAc(b1-3)Gal(b1-4)GlcNAc(b1-2)Man(a1-3)[Gal(b1-4)GlcNAc(b1-3)Gal(b1-4)GlcNAc(b1-3)Gal(b1-4)GlcNAc(b1-2)Man(a1-6)]Man(b1-4)GlcNAc(b1-4)[Fuc(a1-6)]GlcNAc
In short: as §1

[6] = molecular target: Gal(b1-4)GlcNAc(b1-3)Gal(b1-4)GlcNAc(b1-3)Gal(b1-4)GlcNAc(b1-2)[Gal(b1-4)GlcNAc(b1-3)Gal(b1-4)GlcNAc(b1-3)Gal(b1-4)GlcNAc(b1-6)]Man(a1-6)[Gal(b1-4)GlcNAc(b1-3)Gal(b1-4)GlcNAc(b1-3)Gal(b1-4)GlcNAc(b1-2)Man(a1-3)]Man(b1-4)GlcNAc(b1-4)[Fuc(a1-6)]GlcNAc
In short: as §1

[7] = molecular target: Gal(b1-4)GlcNAc(b1-3)Gal(b1-4)GlcNAc(b1-3)Gal(b1-4)GlcNAc(b1-3)Gal(b1-4)GlcNAc(b1-2)Man(a1-3)[Gal(b1-4)GlcNAc(b1-3)Gal(b1-4)GlcNAc(b1-3)Gal(b1-4)GlcNAc(b1-3)Gal(b1-4)GlcNAc(b1-2)Man(a1-6)]Man(b1-4)GlcNAc(b1-4)GlcNAc
In short: as §1

[8] = molecular target: Gal(b1-4)GlcNAc(b1-3)Gal(b1-4)GlcNAc(b1-3)Gal(b1-4)GlcNAc(b1-3)Gal(b1-4)GlcNAc(b1-2)Man(a1-3)[Gal(b1-4)GlcNAc(b1-3)Gal(b1-4)GlcNAc(b1-3)Gal(b1-4)GlcNAc(b1-3)Gal(b1-4)GlcNAc(b1-2)Man(a1-6)]Man(b1-4)GlcNAc(b1-4)[Fuc(a1-6)]GlcNAc
In short: as §1

[9] = molecular target: Gal(b1-4)GlcNAc(b1-3)Gal(b1-4)GlcNAc(b1-3)Gal(b1-4)GlcNAc(b1-3)Gal(b1-4)GlcNAc(b1-2)[Gal(b1-4)GlcNAc(b1-3)Gal(b1-4)GlcNAc(b1-3)Gal(b1-4)GlcNAc(b1-3)Gal(b1-4)GlcNAc(b1-6)]Man(a1-6)[Gal(b1-4)GlcNAc(b1-3)Gal(b1-4)GlcNAc(b1-3)Gal(b1-4)GlcNAc(b1-3)Gal(b1-4)GlcNAc(b1-2)Man(a1-3)]Man(b1-4)GlcNAc(b1-4)[Fuc(a1-6)]GlcNAc
In short: as §1

[10] = molecular target: Gal(b1-4)GlcNAc(b1-3)Gal(b1-4)GlcNAc(b1-3)Gal(b1-4)GlcNAc(b1-3)Gal(b1-4)GlcNAc(b1-3)Gal(b1-4)GlcNAc(b1-2)Man(a1-3)[Gal(b1-4)GlcNAc(b1-3)Gal(b1-4)GlcNAc(b1-3)Gal(b1-4)GlcNAc(b1-3)Gal(b1-4)GlcNAc(b1-3)Gal(b1-4)GlcNAc(b1-2)Man(a1-6)]Man(b1-4)GlcNAc(b1-4)GlcNAc
In short: as §1

[11] = molecular target: Gal(b1-4)GlcNAc(b1-3)Gal(b1-4)GlcNAc(b1-3)Gal(b1-4)GlcNAc(b1-3)Gal(b1-4)GlcNAc(b1-3)Gal(b1-4)GlcNAc(b1-2)Man(a1-3)[Gal(b1-4)GlcNAc(b1-3)Gal(b1-4)GlcNAc(b1-3)Gal(b1-4)GlcNAc(b1-3)Gal(b1-4)GlcNAc(b1-3)Gal(b1-4)GlcNAc(b1-2)Man(a1-6)]Man(b1-4)GlcNAc(b1-4)[Fuc(a1-6)]GlcNAc
In short: as §1

[12] = molecular target: Gal(b1-4)GlcNAc(b1-3)Gal(b1-4)GlcNAc(b1-3)Gal(b1-4)GlcNAc(b1-3)Gal(b1-4)GlcNAc(b1-3)Gal(b1-4)GlcNAc(b1-2)[Gal(b1-4)GlcNAc(b1-3)Gal(b1-4)GlcNAc(b1-3)Gal(b1-4)GlcNAc(b1-3)Gal(b1-4)GlcNAc(b1-3)Gal(b1-4)GlcNAc(b1-6)]Man(a1-6)[Gal(b1-4)GlcNAc(b1-3)Gal(b1-4)GlcNAc(b1-3)Gal(b1-4)GlcNAc(b1-3)Gal(b1-4)GlcNAc(b1-3)Gal(b1-4)GlcNAc(b1-2)Man(a1-3)]Man(b1-4)GlcNAc(b1-4)[Fuc(a1-6)]GlcNAc
In short: as §1

[13] = molecular target: Gal(b1-4)GlcNAc(b1-3)Gal(b1-4)GlcNAc(b1-3)Gal(b1-4)GlcNAc(b1-3)Gal(b1-4)GlcNAc(b1-3)Gal(b1-4)GlcNAc(b1-3)Gal(b1-4)GlcNAc(b1-2)Man(a1-3)[Gal(b1-4)GlcNAc(b1-3)Gal(b1-4)GlcNAc(b1-3)Gal(b1-4)GlcNAc(b1-3)Gal(b1-4)GlcNAc(b1-3)Gal(b1-4)GlcNAc(b1-3)Gal(b1-4)GlcNAc(b1-2)Man(a1-6)]Man(b1-4)GlcNAc(b1-4)GlcNAc
In short: as §1

[14] = molecular target: Gal(b1-4)GlcNAc(b1-3)Gal(b1-4)GlcNAc(b1-3)GalNAc
In short: as §1

[15] = molecular target: Gal(b1-4)GlcNAc(b1-3)Gal(b1-4)GlcNAc(b1-3)[Gal(b1-4)GlcNAc(b1-3)Gal(b1-4)GlcNAc(b1-6)]GalNAc
In short: as §1

[16] = molecular target: Gal(b1-4)GlcNAc(b1-3)Gal(b1-4)GlcNAc(b1-6)[Gal(b1-3)]GalNAc
In short: as §1

[17] = molecular target: Gal(b1-4)GlcNAc(b1-3)Gal(b1-4)[Fuc(a1-3)]GlcNAc(b1-3)Gal(b1-4)[Fuc(a1-3)]GlcNAc
In short: as §1

[18] = molecular target: Gal(b1-4)GlcNAc(b1-3)GalNAc
In short: as §1

[19] = molecular target: Gal(b1-4)GlcNAc(b1-3)[Fuc(a1-3)GlcNAc(b1-6)]Gal(b1-4)Glc
In short: as §1

[20] = molecular target: Gal(b1-4)GlcNAc(b1-3)[Gal(b1-4)GlcNAc(b1-6)]Gal(b1-4)GlcNAc
In short: as §1

[21] = molecular target: Gal(b1-4)GlcNAc(b1-3)[GlcNAc(b1-6)]Gal(b1-4)GlcNAc
In short: as §1

[22] = molecular target: Gal(b1-4)GlcNAc(b1-6)Gal(b1-4)GlcNAc
In short: as §1

[23] = molecular target: Gal(b1-4)GlcNAc(b1-6)GalNAc
In short: as §1

[24] = molecular target: Gal(b1-4)GlcNAc(b1-6)[Gal(b1-3)]GalNAc
In short: as §1

[25] = molecular target: Gal(b1-4)GlcNAc(b1-6)[Gal(b1-4)GlcNAc(b1-3)]GalNAc
In short: as §1

Gal(b1-4)GlcNAc6P = molecular target: Gal(b1-4)GlcNAc6P
In short: as §1

Gal(b1-6)Gal = molecular target: Gal(b1-6)Gal
In short: as §1

Gal3S(b1-3)GalNAc = molecular target: Gal3S(b1-3)GalNAc
In short: as §1

Gal3S(b1-3)GlcNAc = molecular target: Gal3S(b1-3)GlcNAc
In short: as §1

[26] = molecular target: Gal3S(b1-3)[Fuc(a1-4)]GlcNAc
In short: as §1

Gal3S(b1-4)Glc = molecular target: Gal3S(b1-4)Glc
In short: as §1

Gal3S(b1-4)Glc6S = molecular target: Gal3S(b1-4)Glc6S
In short: as §1

Gal3S(b1-4)GlcNAc = molecular target: Gal3S(b1-4)GlcNAc
In short: as §1

[27] = molecular target: Gal3S(b1-4)[Fuc(a1-3)]Glc6S
In short: as §1

[28] = molecular target: Gal3S(b1-4)[Fuc(a1-3)]GlcNAc
In short: as §1

[29] = molecular target: Gal3S(b1-4)[Fuc(a1-3)]GlcNAc6S
In short: as §1

Gal3S4S(b1-4)GlcNAc = molecular target: Gal3S4S(b1-4)GlcNAc
In short: as §1

B1: Cohesin-hLangerin (Homo sapiens) (protein)
chain: LDDLDAVRIKVDTVNAKPGDTVRIPVRFSGIPSKGIANCDFVYSYDPNVLEIIEIEPGDIIVDPNPDKSFDTAVYPDRKIIVFLFAEDSGTGAYAITKDGVFATIVAKVKEGAPNGLSVIKFVEVGGFANNDLVEQKTQFFDGGANVGDTTEPATPTTPVTTPTTTDDLDAASYPRFMGTISDVKTNVQLLKGRVDNISTLDSEIKKNSDGMEAAGVQIQMVNESLGYVRSQFLKLKTSVEKANAQIQILTRSWEEVSTLNAQIPELKSDLEKASALNTKIRALQGSLENMSKLLKRQNDILQVVSQGWKYFKGNFYYFSLIPKTWYSAEQFCVSRNSHLTSVTSESEQEFLYKTAGGLIYWIGLTKAGMEGDWSWVDDTPFNKVQSARFWIPGEPNNAGNNEHCGNIKAPSLQAWNDAPCDKTFLFICKRPYVPSEPHHHHHH
- glycan array binding signal (z-score) [1]: 3.41
- glycan array binding signal (z-score) [2]: -0.08
- glycan array binding signal (z-score) [3]: -0.412
- glycan array binding signal (z-score) [4]: -0.091
- glycan array binding signal (z-score) [5]: -0.137
- glycan array binding signal (z-score) [6]: 0.124
- glycan array binding signal (z-score) [7]: -0.012
- glycan array binding signal (z-score) [8]: -0.185
- glycan array binding signal (z-score) [9]: 0.092
- glycan array binding signal (z-score) [10]: 1.23
- glycan array binding signal (z-score) [11]: -0.112
- glycan array binding signal (z-score) [12]: 0.332
- glycan array binding signal (z-score) [13]: 0.548
- glycan array binding signal (z-score) [14]: -0.091
- glycan array binding signal (z-score) [15]: -0.082
- glycan array binding signal (z-score) [16]: 0.078
- glycan array binding signal (z-score) [17]: -0.274
- glycan array binding signal (z-score) [18]: -0.438
- glycan array binding signal (z-score) [19]: -0.334
- glycan array binding signal (z-score) [20]: -0.445
- glycan array binding signal (z-score) [21]: -0.334
- glycan array binding signal (z-score) [22]: -0.274
- glycan array binding signal (z-score) [23]: -0.274
- glycan array binding signal (z-score) [24]: -0.235
- glycan array binding signal (z-score) [25]: -0.417
- glycan array binding signal (z-score) (Gal(b1-4)GlcNAc6P): -0.37
- glycan array binding signal (z-score) (Gal(b1-6)Gal): -0.346
- glycan array binding signal (z-score) (Gal3S(b1-3)GalNAc): -0.06
- glycan array binding signal (z-score) (Gal3S(b1-3)GlcNAc): -0.12
- glycan array binding signal (z-score) [26]: -0.36
- glycan array binding signal (z-score) (Gal3S(b1-4)Glc): 0.737
- glycan array binding signal (z-score) (Gal3S(b1-4)Glc6S): -0.135
- glycan array binding signal (z-score) (Gal3S(b1-4)GlcNAc): -0.253
- glycan array binding signal (z-score) [27]: -0.395
- glycan array binding signal (z-score) [28]: -0.297
- glycan array binding signal (z-score) [29]: 0.275
- glycan array binding signal (z-score) (Gal3S4S(b1-4)GlcNAc): -0.417
